The test system of test [1] is HUVEC (non-transfected). Briefly: cells. The conditions noted are these: Homo sapiens; for inhibition at 20 µM: read-out: Average proliferation Inhibition rate (%) HUVEC; for IC50: read-out: IC50 HUVEC.
Test [2] deals with HUVEC (non-transfected). Conditions: for Combination Index (CI) with rapamycin, HUVEC: ABL kinase inhibitor 10 μM to 30 nM combined with rapamycin 10 nM.

These results are taken from patent publication US20180015075A1, “METHODS AND COMPOSITIONS FOR TREATMENT OF VENOUS MALFORMATION” (Children's Hospital Medical Center, priority 2016, published 2018).

Read-outs that look alike come from different tables or passages of the source.

Broadly, the IC50 is the midpoint of a concentration-inhibition curve.

For `COc1cc(Nc2c(C#N)cnc3cc(OCCCN4CCN(C)CC4)c(OC)cc23)c(Cl)cc1Cl` [Bosutinib, 4-((2,4-Dichloro-5-methoxyphenyl)amino)-6-methoxy-7-(3-(4-methyl-1-piperazinyl)propoxy)3-quinolinecarbonitrile], in the test on HUVEC (non-transfected) [1], the inhibition at 20 µM amounted to 35.8% and the 50% inhibitory concentration (IC50) was found to be 5.16 ± 1.85 µM. Also, the “Combination Index (CI) with rapamycin, HUVEC” value in the test on HUVEC (non-transfected) [2] was determined as 1.47 ± 0.41.

As to `Cc1cn(-c2cc(NC(=O)c3ccc(C)c(Nc4nccc(-c5cccnc5)n4)c3)cc(C(F)(F)F)c2)cn1` [Nilotinib, 4-Methyl-N-[3-(4-methyl-1H-imidazol-1-yl)-5-(trifluoromethyl)phenyl]-3-[[4-(3-pyridinyl)-2-pyrimidinyl]amino]-benzamide], in the test on HUVEC (non-transfected) [1], the inhibition at 20 µM was -7.48% and the IC50 was determined as 6.39 ± 1.18 µM. Moreover, the “Combination Index (CI) with rapamycin, HUVEC” value in the test on HUVEC (non-transfected) [2] is listed as 0.71 ± 0.27.

Arsenic trioxide: the “Average proliferation Inhibition rate (%) HUVEC” value in the test on HUVEC (non-transfected) [2] (20 uM) was 1.49%.

For the compound Bleomycin sulfate, the “Average proliferation Inhibition rate (%) HUVEC” value in the test with HUVEC (non-transfected) [2] (20 µM) turned out to be 50.88%.

“Dabrafenib mesylate [Dabrafenib-mesylate]”: the “Average proliferation Inhibition rate (%) HUVEC” value in the test with HUVEC (non-transfected) [2] (20 uM) is given as 22.13%. Besides, the IC50 in the test with HUVEC (non-transfected) [2] (read-out: IC50 HUVEC, 6 dilution doses from 10 μM to 30 nM) is greater than 10 µM.
